Measured values published in the RNAGym collection of RNA variant scans (doi:10.1093/nar/gkz1192).
Read counts are not given, so values of variants with three or more changes are uncertain.

B1: CPEB3 Ribozyme (parent)
chain: UAACAGGGGGCCACAGCAGAAGCGUUCACGUCGCAGCCCCUGUCAGAUUCUGGUGAAUCUGCGAAUUCUGCUGUAUAUCUC

Variants of: B1
Assay: self-cleavage, relative activity (ratio to wild type); higher = more cleavage; in vitro, sequencing
Method in brief: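 For each CPEB3 ribozyme variant, relative activity is its cleaved/total read fraction divided by the unmutated ribozyme's. Barcoded error-prone PCR libraries were transcribed by T7 RNA polymerase (5 hours, 37°C) and held in DNase I for 15 min before an EDTA stop, with cleavage occurring throughout. Template-switching reverse transcription and Illumina sequencing were used to read the RNAs. A 5-read minimum applied, and results are the mean of three batches.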

| Variant | self-cleavage |
| --- | --- |
| UAACAGGAGGCCACAGCAGAAGCGUUCACGUCGCAGGCCCUGUCGGAUUCUGGUGAAUCUGCGAAUUCUGCUGUAUAUCCC [G8A C37G A45G U80C] | 0.06 |
| UAACAGGAGACCACAGCAGGGGAGUUCACGUCGCAGCCCCCGUCAGAUUCUGGCGAAUCUGCGAAUUCUGCUGUAUAUCUC [G8A G10A A20G A21G C23A U41C U54C] | 0.08 |
| UAACAGGAGGCCACAGCAGAAGCGUUCACGUCGCAGCCCCUGUCAGAUUCUGGUGAAUCUGCGGAUUCUGCUGUAUAUCCC [G8A A64G U80C] | 0.06 |
| UAACAGGAGGUCACAGCAGGAGCGUUCACGUCGCAGCCCAUGUCAGGUUCUGGUGAAUCCGCGAAUCCUGCUGUAUAUCUC [G8A C11U A20G C40A A47G U60C U67C] | 0.04 |
| UAACAGGAGGCCACAGCAGAAGAGUUCACGUCGCAGCCCAUGUCAGAUCCUGGUGAAUCUGCGAAUUCCGCAGCAUAUCUC [G8A C23A C40A U49C U69C U72A U74C] | 0.02 |
| UAACAGGAGGCCACAGCAGAAGUGUCCACGUCGCAGCCCCUAUCAGAUUCUGGUGAAUCUGCGAAUUCUGCGGUAUAACUC [G8A C23U U26C G42A U72G U78A] | 0.03 |
| UAACAGGAGGUCACAGCAGAAGCAUCCACGUCGCAGCCCCUGCCAGAUUCUGGUGAAUCUGCGUAUUCUGCUGUAUAUCUC [G8A C11U G24A U26C U43C A64U] | 0.04 |
| UAACAGGAGGCCACAGCAGAAGCGUUCACGUCGCAGCCCCUGUCAGAUUCUGGUGGAUCUGCGGAUUCUGCCGUAUAUCUC [G8A A56G A64G U72C] | 0.08 |
| UAACAGGAGGCCACAGUAGAGGCGUUCACGUCGCAGCCCCUGUCAGAUUCAGGUGAAUCUGCGAAUUCUGCUGUAUAUCUC [G8A C17U A21G U51A] | 0.05 |
| UAACAGGAGGUCACAGCAGAAGCGUUCACGUCGCAGCCCCCGUCAGAUUCUGCUGAUUCUGCGAAUUCUGCUGUAUCUCUC [G8A C11U U41C G53C A57U A77C] | 0.05 |
| UAACAGGAGGCCACAGCAGAAGUGUUCACGUCGCAGCCCCUGUCAGAUUCUGGAGAAUCUGCGAAUUCUGCAGUAUAUCUC [G8A C23U U54A U72A] | 0.08 |
| UAACAGGAGGCCACAGCAGAAGCGUUCACGUCGCAGCCACUGUCAGAUUCUGGUGAAUCUGCGAGUUCUGCUGUAUAUCUC [G8A C39A A65G] | 0.18 |
| UAACAGGAGGCCACAGCAGAAGCGUUCAGGUCGCAGCCCCUGUCAGAUUCUGGUGAAUCUGCGAAUGCUGCUGAAUAUCUC [G8A C29G U67G U74A] | 0.1 |
| UAACAGGAGGCCAUAGCAGAAGCGUUCACUUCGCAGCCCCUGUCAGACUCUGGUGAAUCUGCGAAUUCUGCUGUAUAUCUC [G8A C14U G30U U48C] | 0.05 |
| UAACAGGAGGCCACAGCAGAAGCGUUCACGUCGCAGCUCCUGUCAGAUUCUGGUGAAUCUGCGAAUUCUGCUGUGCAUCUC [G8A C38U A75G U76C] | 0.08 |
| UAACAGGAGGCCACAGCAGAAGCGUUCACGUCGCAGCCCCUGUCUGAUUCUGGUGAAUCCGCGAAUUCUGCUGUAUAUCUC [G8A A45U U60C] | 0.15 |
| UAACAGGAGGCAACAGCAGAAGCGUUCACGUCGCAGCCCCUGUCAGAUUCUGGUGAAUCAGCGUAUUCUGCUGUAUAUCCC [G8A C12A U60A A64U U80C] | 0.05 |

| Variant | self-cleavage |
| --- | --- |
| UAACAGGAGGCCACAGCAGAAGCGUUCACGUGGCAGCCCCUGUCAGAUUCUGGUGAAUCUGCGAAUUCAGCUGUAUAUCUC [G8A C32G U69A] | 0.42 |
| UAACAGGAGGCCACAGCAGAAGCGUUCACGUCGCAGCCCCUGUCAGAUUCUGGUGAGCCUGCGAAUUCUGCUGUAUAUCUC [G8A A57G U58C] | 0.3 |
| UAACAGGAGGCCAUAGCAGAAGCGUUUACGUCGCAGCCCCUGUCAGAUUCUGGUGAAUCUGCGAAUUCUGCUGUAUAUCUC [G8A C14U C27U] | 0.07 |
| UAACAGGAGGUCACAGCAGAAGCGCUCACGUCGCAGUCCCUGUCAGAUCCUGGUGAAUCUGCGAAUUCGGCUGUUUAUCUC [G8A C11U U25C C37U U49C U69G A75U] | 0.03 |
| UAACAGGAUGCCACGGCAGAAGCGUUCACGUCGCAGCCCCUGUCAGAUUCCGGUUAAUCUGCGAAUUCUGCUGUGUAUCUC [G8A G9U A15G U51C G55U A75G] | 0.07 |
| UAACAGGAGACCACAGCAGAAGCGCUCACGCCGCAGCCCCUGUCAGAUUCUGGCGAAUCUGCGAAUUCUGCUGUAUAUCAC [G8A G10A U25C U31C U54C U80A] | 0.04 |
| UAACAGGAGGCCACAGCAGAAGCGUUCACGUCGCAGCCCCUGUCAGAUUCUGGUGAGUCAGCGAAUUGUGCUGUAUAUCUC [G8A A57G U60A C68G] | 0.03 |
| UAACAGGAGGCCACAGCAGAAGGGUUCACGUCGCUGCCCCUGUCAGAUUCUGGCGAAUCUGCGAAUUCUGCGGUAUACCUC [G8A C23G A35U U54C U72G U78C] | 0.1 |
| UAACAGGAGGCCACAGCAGAAGCGUUCACGUCGCAGCCCCUGUCAGAUUCUGGUGAAUCUGCGGAUUCUGCUGUAAAUCUC [G8A A64G U76A] | 0.21 |
| UAACAGGAGGCCACAGCAGAAGCGUUCACGUCGCAGCCCCUGUCCGGUUCUAGGGAAUCUGCGAAUCCUGCUGUAUAUAUC [G8A A45C A47G G52A U54G U67C C79A] | 0.15 |
| UAACAGGAGGGCACAGCAGAAGCGUUCACGUCGCAGCCCCUGUCAGAUUCUGGUGAAUCUGCGAAUUCUGCUGUACACCUC [G8A C11G U76C U78C] | 0.07 |
| UAACAGGAGACCACAGCAGAAGCGUUCACGUCGCAGCCCCUGUCAGAUUCUGGUCAAUCUGCGAAUUCUGCUGUAUAUCUC [G8A G10A G55C] | 0.18 |
| UAACAGGAGGCCACAGCAGAAGCGUUCACGUCGAAGCCCCUGUCAGAUUCUGGUGAAUCUGCGAGUUCUGCAGUAUAUCAC [G8A C34A A65G U72A U80A] | 0.41 |
| UAACAGGAGGCCACAGCAGAAGCGUUCACGUCGCAGCCCCUGUCAGAUUCUGGUGAGUCUGCGAAGUCUGCUGUAUACCUC [G8A A57G U66G U78C] | 0.16 |
| UAACAGGAGGCCACAGCAGAAGAGUCCACGUCGCAGCCCCUGUCAGAUUCUGGCGAAUCUGCGAAUUCUGUUGUAUAUCUC [G8A C23A U26C U54C C71U] | 0.06 |
| UAACAGGAGGCCACAGCAGAAGCGUUCACGUCGCAGCCCAUGUCAGAUUCUGGUGAAUCUGCGAAUCCUGAUGUAUAUCUC [G8A C40A U67C C71A] | 0.05 |
| UAACAGGAGGCAACGGGAGAAGCGUUCACGUCGCAGCCCCUGUCAGAUUCUGGUGAGUCUGCGAAUCCUGCUGUAUAUCUC [G8A C12A A15G C17G A57G U67C] | 0.05 |
